Read counts are not given, so values of variants with three or more changes are uncertain.
B1: LINE1-mini (parent)
chain: GGCAGAGCUCAACACAGCGUGGCAAAGUGGCUGUGGCUAGACUGCC

Variants of: B1
Test: self-cleavage, relative activity (ratio to wild type); higher = more cleavage; in vitro, sequencing; the parent is a self-cleaving ribozyme

| Variant | self-cleavage |
| --- | --- |
| UGCAGGGCUCAACACAGCGAGGCAAACUGGCUGUGGCUUGACUGCC | 0.01 |
| UGCAGAGCUCUACACAGUGUGGCAAAGUGGCUGUGGCUAGACUGCC | 0.03 |
| UGCAGUGCUCGACUCAGCUUGGCAAAGUGGCGGUGACUAGACUGCC | 0 |
| UGCAGCGGGCAACACAGCGUGGCAAAGUGGCUGUGGCUAGAUUGCC | 0.02 |
| UGCAGGGCUGAAGACAGCGUGGCAAAGUGGCUGUGACUGGAAUGCC | 0 |
| UGCAGAGCUCUACACGGCGUGGUAAAGUGGCUGUGGCUAGACUGCC | 0.02 |
| UGCAGGGCUCAACACAGCGUGGCAAAGUGGCUGGGACUAGACUGCC | 0.17 |
| UGCUGAGCUCAACACAGCGUGGCAAAGUAGCUGUGGCUAGACUGCC | 0.16 |
| UGCUGAGCUCAACACAGCGUAGCAAAGUGGCUGUGGCUAGACUGCC | 0.79 |
| UGCAGUGCUCAACACAGCGUGGCAAAGUGGCUGAGUCUAGACUGCC | 0.02 |
| UGCAGAGCUCCACACAGCGUGGUAGAGUGGCUGUGGCUAGACUGCC | 0.03 |
| UGCAGUGCUUAACACAGCGUGGCCAAGUGGCUGUGGCUAGACUUCC | 0.02 |
| UGCAGUGCUCAACACAGCGUGUCAAAGUGGCUGUGGCUAGAGUGCC | 0.04 |
| UGCAGGGCUCAAGACAGCGUGGCAAAUUGGCUGUGGCUACACUGCC | 0.01 |
| UGCAGAGCUCGACACAGCGUGGCAAAGUGGCUGUGGCUAGACUACC | 0.02 |
| UGCAGAGCUCGACACAGCGUGGCAAAGUGGCUGUCGCUACACUGGC | 0.01 |
| UGCUGAGCUCAACACAGCGGGGCAAAGUGGCUGUGGCUAGACAGCC | 0.14 |
| UGCAGAGCUCGACACAGCGUGGCAAAGUGGAUGUGGCUAUACUGCC | 0 |
| UGCAGUGCUCAACUCAGCCUGGCAAAGUGGCUGUGGCUAGACUGCC | 0.07 |

| Variant | self-cleavage |
| --- | --- |
| UGCAGGGAUCAACACAGAGUGGCAAAGUGGCUUUGGCUAGACUGCC | 0.09 |
| UGCAGAGCUCUACACAGCGUGGCAAAGUGGCUGUGGCUAGACUGCA | 0.13 |
| UGCAGAGCUCUACACAGCGUUGCAAAGUGGCUGUGGCUAGACUGCC | 0.09 |
| UGCAGAGCUCGACACAGCGUGGCAAAGUGGCUGUGGCUGGACUGCC | 0.03 |
| UGCAGCGCUAAACACAGCGUGGCAUAGUGGCUGUGGCUAGACCGCC | 0 |
| UGCUGAGCACAACACAGCGUGGCAAAGUGGGUGUGGCUAGACUGCU | 0.02 |
| UGCAGCGCUCAACACAGCGUGGCCAAGUGGGUGUGGCUAGACUGCC | 0.03 |
| UGCAGAGCUCUACAUAGCGUGGCAAAGUGGCUGUGGCUAGACUGAC | 0.03 |
| UGCAGGGCUCAACACAGCGUGGCAAAGUGGCGGUGGCUAGACUGCA | 0.02 |
| UGCAGUGCUCAACACAGCGUUGCAACGUGGCUGUGGCUAGAAUGCC | 0 |
| UGCAGCGCUCAACACAGAGUGGCAAAGUGGCUGUGGCCAGACUGCC | 0 |
| UGCUGAGCUCAACACAGCCUGGCAAAGUGGCUGUGGCUAGACUGCC | 0.13 |
| UGCAGUGCUCAAGACAGCCUGGCAAUGUCGCUGUGGCUAGAGUGCC | 0.02 |
| UGCAGAGCUCUACACAGCGUGGCGAAGUGGCUGUGGCUAGACUUCC | 0.01 |
| UGCAGAGCUCUACACAGCGUGGCAAAGUGGCUGUGGCUAGACUGAC | 0 |
| UGCAGUGCUCAACAUAGCGUGGCAAAGUGGCUGUGGCUAGACUGCC | 0.04 |
| UGCAGAGCUCGACACCGCCUGGCAAAGUGGUUGUGGCUAGACUGCC | 0 |
| UGCAGUACUCAACACAGCGUGGGAAAGUGGCUGUGGCUAGACUACC | 0.03 |
| UGCAGAGCUCGACACAGCGUGGCAAAGUGGCUGUUGCUAAACUGCC | 0 |

| Variant | self-cleavage |
| --- | --- |
| UGCAGGGCUCAACUCAGCGUGGCAAAGUGGCUGUGGCUAGACUGCC | 0.06 |
| UGCAGGGCUCAACACAGGGUUGCAAAGUGGCUGUGGCUAGACUGCC | 0.02 |
| UGCAGCGCUAAACACAGCGUGGCAAAGUGGCUGUGGCUAGAAUGCC | 0.04 |
| UGCAGUGCUCAACACAGCGUGACAAAGUGGCUGUGGCUAGACUACC | 0.04 |
| UGCAGUGUUCAACACAGCGUGGCAAAGUGGCUGUGGCUUGACUGCC | 0.04 |
| UGCAGAGCUCCACACAGCGUGGCAAAGUGGCUGUGGCUAGACUGAC | 0.01 |
| UGCUGAGCUCAACACAGCGUUGCAAAGUGGCUGUGGAUAGACUGCC | 0.11 |
| UGCAGAGCUCUACACAGCGUGGCCAAGUGGCUGUGGCUAGACUGCC | 0.03 |
| UGCAGCGCUCAACACUGCGCGGCAAAGUGGCUGUGGCUAGACUGCC | 0.04 |
| UGCUGAGCUCAACACAGCGUGGCAAAGUGGCUGUGGCUAGACAGCC | 0.25 |
| UGCAGUGCUCAACCCAGCGUGGCCCAGUGGCUGUGGCUAGACUGCC | 0.02 |
| UGCAGAGCUCGACACAGCGUGGCAAAGUAGCUGUAACUAGACUGCC | 0.02 |
| UGCAGGGCUCAACACAGCGUGGGAAACUGGCUGAGGCUAGACUGCC | 0.01 |
| UGCAGAGCUCUUCAGAGCGUGGCAAAGUGGCUGUGGCUAGACUGCC | 0.01 |
| UGCAGGGCUCAGCACAACUUUGCAAAGUGGCUGUGGCUAGACUGCC | 0 |
| UGCAGUGCUCAACACAGCGUGGCAAAGUGGCUGUGGCUAGAGUGCU | 0.1 |
| UGCAGCGCUCAACACAGCGUGGCAAAGUGGCUGUUACUAGACUGCC | 0.01 |
| UGCAGCGCUCAACACAGCGUAGCAAAGUGGCUGUGGCUAUACUGCC | 0.04 |

Reference: the RNAGym collection of RNA variant scans (doi:10.7554/elife.90254)
